Source: PubChem BioAssay AID588591 (National Center for Advancing Translational Sciences (NCATS), 2011)
Screen size: about 390,000 compounds; about 4,700 (1.2%) were called active. Inconclusive means that the source gave no clear call. Such entries were picked first, then a sample of the others. Calls come from the whole dose curve; as a rule, active = well fitted inhibition curve with a large enough effect; inconclusive = small, poorly fitted or top-dose-only effect, or another doubt; inactive = no such curve, though single readings can be large or run the other way. Where the call is inconclusive, the potency comes from a doubtful curve fit.

target: DNA polymerase eta (Homo sapiens) (UniProt Q9Y253); test: qHTS for Inhibitors of Polymerase Eta; settings: recombinant Pol eta, fluorescent DNA replication assay; series mostly up to 114 µM; activity change, negative = inhibition: at the top concentration
In short: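 Pol eta at 10 nM preincubated with compounds 15 min at room temperature; reaction started with fluorescent substrate (50 nM final) and read kinetically at 0 and 10 min.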
% is set by controls: 0 for no effect and ±100 for the full control effect; potency is the fitted concentration of half-maximal effect; tags give direction and shape of the fitted curve.

Chain of UniProt Q9Y253 (Q9Y253 whole entry, looked up): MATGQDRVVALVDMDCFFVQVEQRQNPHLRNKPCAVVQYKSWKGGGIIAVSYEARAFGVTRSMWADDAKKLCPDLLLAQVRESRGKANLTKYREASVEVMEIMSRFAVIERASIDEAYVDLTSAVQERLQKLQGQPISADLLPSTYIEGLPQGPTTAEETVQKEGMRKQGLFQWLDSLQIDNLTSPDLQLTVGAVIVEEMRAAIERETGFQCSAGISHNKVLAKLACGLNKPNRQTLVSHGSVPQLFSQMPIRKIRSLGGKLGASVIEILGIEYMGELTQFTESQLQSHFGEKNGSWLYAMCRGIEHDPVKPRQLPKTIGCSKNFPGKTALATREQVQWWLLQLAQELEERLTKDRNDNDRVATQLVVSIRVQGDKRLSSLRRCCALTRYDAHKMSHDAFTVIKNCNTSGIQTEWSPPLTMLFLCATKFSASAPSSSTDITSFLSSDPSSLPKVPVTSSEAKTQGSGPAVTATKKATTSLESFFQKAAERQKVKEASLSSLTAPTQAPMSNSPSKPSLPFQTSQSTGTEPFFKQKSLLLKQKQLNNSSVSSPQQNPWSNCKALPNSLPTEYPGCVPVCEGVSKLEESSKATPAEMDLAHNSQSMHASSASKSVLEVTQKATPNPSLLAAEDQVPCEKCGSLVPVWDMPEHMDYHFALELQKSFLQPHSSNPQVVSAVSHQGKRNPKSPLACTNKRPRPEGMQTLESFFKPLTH

| Compound | activity change, negative = inhibition | Potency |
| --- | --- | --- |
| COc1ccc(-c2nc3cc(C(C)C)ccc3o2)cc1NC(=O)c1ccccc1[N+](=O)[O-] | inactive: -21.7% | – |
| COc1ccccc1CNC(=O)CCc1c(C)nn(-c2ccc(N3CCCCC3)nn2)c1C | inactive: -12% | – |
| COCCn1nnnc1C(c1cc2cc(OC)ccc2[nH]c1=O)N1CCC(Cc2ccccc2)CC1 (stereo not drawn) | – | inconclusive: 0.708 µM [inhibitor, partial curve, poor fit] |
| O=C(O)c1cccc(N/N=C/c2cccc3ccccc23)c1 | – | inconclusive: 56.2 µM [inhibitor, partial curve] |
| N#CC1=C(N)Oc2n[nH]c(-c3ccccc3)c2C1c1ccsc1 (stereo not drawn) | – | inconclusive: 12.6 µM [inhibitor, partial curve] |
| CC(=C/C(=O)O)/C=C/c1ccco1 | – | inconclusive: 15.8 µM [inhibitor, single point] |
| O=C1C=CC(=Nc2ccc3c(c2)C(=O)c2ccccc2-3)O1 | – | inconclusive: 25.1 µM [inhibitor, full curve, poor fit] |
| CC(=O)N(/N=C1\Sc2ccccc2C1=O)c1cccc(C)c1 | – | active: 20 µM |
| COc1ccccc1C(=O)COC(=O)CNS(=O)(=O)c1ccc(C)c(C)c1 | – | inconclusive: 0.631 µM [inhibitor, partial curve, poor fit] |
| Cc1ccc(-c2cn3cccnc3n2)cc1 | inactive: -11.9% | – |
| CSc1ccc(/C=C/C(=O)c2ccc(NC(=O)C(C)C)cc2)cc1 | – | inconclusive: 25.1 µM [inhibitor, partial curve, poor fit] |
| Cc1cccc(C(=O)OCC(=O)c2c(N)n(CC(C)C)c(=O)n(C)c2=O)c1O | – | inconclusive: 22.4 µM [inhibitor, partial curve, poor fit] |
| O=[N+]([O-])c1ccc(Cl)c(S(=O)(=O)Nc2ccc(-c3ccc(N4CCOCC4)nn3)cc2)c1 | – | inconclusive: 31.6 µM [inhibitor, single point] |
| CCOC(=O)CC(NC(=O)c1ccc(C)cc1)c1ccc(OC)cc1 (stereo not drawn) | inactive: -7.84% | – |
| Cc1ccc(NS(=O)(=O)c2cc(C(=O)O)ccc2Cl)cc1 | – | inconclusive: 35.5 µM [inhibitor, partial curve, poor fit] |
| O=S(=O)(O)c1nc2ccccc2n1CCOc1ccccc1 | inactive: -13.7% | – |
| O=C(O)c1ccc2c(c1)C(=O)N(CCCCCCCN1C(=O)c3ccc(C(=O)O)cc3C1=O)C2=O | inactive: -16.6% | – |
| O=C(O)c1ccc2c(c1Nc1ccccc1)C(=O)c1ccccc1C2=O | – | inconclusive: 56.2 µM [inhibitor, partial curve] |
| CN(CC1CCCN(CCc2ccccc2F)C1)C(=O)c1cc2ccccc2o1 (stereo not drawn) | inactive: -21.2% | – |
| CCN(CC)C1Oc2cc3c(cc2C(c2cccc(OC)c2O)C1C)OCO3 (stereo not drawn) | – | inconclusive: 39.8 µM [inhibitor, partial curve, poor fit] |
| Cc1cc(NC(=O)c2cc(-c3cccs3)on2)no1 | inactive: 2.61% | – |
| CCN(Cc1ccccc1)C(=O)Cn1ncc2c(=O)oc3ccc(C)cc3c21 | inactive: -20.3% | – |
| Cc1ccccc1NC(=O)C(=Cc1ccc(C(=O)O)cc1)C(=O)Nc1ccccc1C | – | active: 56.2 µM |

| Compound | activity change, negative = inhibition | Potency |
| --- | --- | --- |
| CCCN=CC1=C(O)CC(c2ccccc2)CC1=O (stereo not drawn) | – | inconclusive: 7.08 µM [inhibitor, partial curve, poor fit] |
| Cc1ccc(NC(=O)Cn2c(=O)n(CCCCC(=O)NCc3ccc4c(c3)OCO4)c(=O)c3ccccc32)cc1 | inactive: -7.28% | – |
| CCCOC(=O)c1c(NC(=O)C2C3C=CC(C3)C2C(=O)O)sc2c1CCC(C)C2 (stereo not drawn) | – | inconclusive: 89.1 µM [inhibitor, partial curve, poor fit] |
| CCOC(=O)C1CCN(c2ncnc3c2c(-c2ccccc2)cn3-c2ccc(Cl)cc2)CC1 | inactive: -18.5% | – |
| CC(C)=CCC/C(C)=C/COc1c2occc2cc2ccc(=O)oc12 | – | inconclusive: 17.8 µM [inhibitor, full curve, poor fit] |
| CN(C)c1ccc(/C=C/C=C2/SC(=S)N(c3ccccc3)C2=O)cc1 | inactive: 0.312% | – |
| CCOc1cccc(CNc2ccc(O)cc2)c1OCc1ccc(Cl)cc1 | – | active: 50.1 µM |
| Cc1cc(N/N=C/c2ccc(N(C)C)cc2)c2ccccc2n1 | – | inconclusive: 89.1 µM [inhibitor, partial curve, poor fit] |
| Cc1ccc2nc(SCC(=O)NCc3ccco3)c(C#N)cc2c1 | – | inconclusive: 22.4 µM [inhibitor, single point] |
| COc1ccc(C(=O)Nc2ccc(NS(=O)(=O)c3ccccc3)cc2)cc1OC | – | inconclusive: 89.1 µM [inhibitor, partial curve, poor fit] |
| Cc1cccc(N2CCN(C(=O)CN3C(=O)COc4ccc(S(=O)(=O)N5CCCC5)cc43)CC2C)c1 (stereo not drawn) | inactive: -10.6% | – |
| Cc1ccc(S(=O)(=O)N(CCO)c2cc3c(s2)CCCC3)cc1 | – | inconclusive: 44.7 µM [inhibitor, partial curve, poor fit] |
| COc1ccc(CCNC(=O)CCc2nc3sc4c(c3c(=O)[nH]2)CCCC4)cc1 | – | inconclusive: 56.2 µM [inhibitor, partial curve, poor fit] |
| Cc1ccc(/C=C/C(=O)O)cc1S(=O)(=O)N1CCc2ccccc2C1 | inactive: -6.79% | – |
| CC1(C)Cc2c(sc3[nH]c(=S)n(Cc4ccco4)c(=O)c23)CO1 | inactive: -6.06% | – |
| O=C1CSC(=S)N1/N=C/C=C/c1ccccc1 | – | active: 14.1 µM |
| O=C(Nc1cc(Cl)cc2c1-c1ccc(Cl)cc1C2O)C(Cl)Cl (stereo not drawn) | inactive: -11.5% | – |
| Oc1c(C(c2ccccc2F)N2CCCC2)sc2nc(-c3ccco3)nn12 (stereo not drawn) | – | inconclusive: 89.1 µM [inhibitor, single point] |
| O=C(Nc1nccs1)c1ccc(Br)cc1 | – | inconclusive: 89.1 µM [inhibitor, single point] |
| CCOc1ccc(Cn2c3ccc(OC)cc3c3nc4ccccc4nc32)cc1 | – | inconclusive: 20 µM [inhibitor, partial curve, poor fit] |
| C=CCS/C(=N\n1cnc2ccccc2c1=O)N(CC)CC | – | inconclusive: 39.8 µM [inhibitor, single point] |
| N#C/C(=C\c1cc(Br)c(O)c(Br)c1)c1nc2ccccc2c(=O)[nH]1 | inactive: -14.3% | – |
| COC(=O)CNC(c1ccccc1)c1cc(Br)ccc1NS(=O)(=O)c1ccc(C)cc1 (stereo not drawn) | – | inconclusive: 3.55 µM [inhibitor, partial curve, poor fit] |

| Compound | activity change, negative = inhibition | Potency |
| --- | --- | --- |
| O=C1C(=O)c2c(ccc3ccccc23)-c2ccccc21 | – | active: 7.94 µM |
| CSc1nc(=O)[nH]nc1Sc1ccccc1 | – | active: 44.7 µM |
| CCOc1c(O)ccc(/C=C2\SC(=S)NC2=O)c1[N+](=O)[O-] | – | active: 25.1 µM |
| O=C(CSc1ccc2nnc(-c3ccccn3)n2n1)NCc1ccco1 | – | inconclusive: 44.7 µM [inhibitor, partial curve] |
| O=c1[nH]c(/C=C\c2cccs2)nc(O)c1[N+](=O)[O-] | – | inconclusive: 50.1 µM [inhibitor, partial curve] |
| N#C/C(=C\c1ccc(O)c([N+](=O)[O-])c1)c1nc2ccccc2s1 | – | active: 20 µM |
| C[C@H](NS(=O)(=O)c1ccc(Cl)c(Cl)c1)C(=O)OCc1cc(=O)n2cc(Br)ccc2n1 | – | inconclusive: 28.2 µM [inhibitor, partial curve, poor fit] |
| COc1ccc(-c2c(-c3ccccc3)c(C(=O)C(=O)NCCCN(C)C)n3ccc4cc(OC)c(OC)cc4c23)cc1OC | – | inconclusive: 50.1 µM [inhibitor, partial curve, poor fit] |
| COc1ccccc1-c1nn2c(=O)cc(CN3CCN(C(=O)/C=C/c4ccccc4)CC3)nc2s1 | – | inconclusive: 89.1 µM [inhibitor, partial curve, poor fit] |
| COC(C(=O)NNS(=O)(=O)c1ccccc1[N+](=O)[O-])c1ccccc1 (stereo not drawn) | inactive: -1.55% | – |
| Cc1[nH]n(-c2ncc(-c3ccccc3)s2)c(=O)c1C(c1ccc(Br)cc1)C(C#N)C#N (stereo not drawn) | – | active: 22.4 µM |
| O=C(O)c1ccc2c(=O)n3c(nc2c1)/C(=C/c1ccc(C(F)(F)F)cc1)CC3 | – | inconclusive: 39.8 µM [inhibitor, partial curve, poor fit] |
| COc1ccc(S(=O)(=O)c2nnn(-c3ccc(C(C)C)cc3)c2C)cc1 | – | inconclusive: 79.4 µM [inhibitor, partial curve, poor fit] |
| Cc1c(Cl)cnc(NC(=O)COC(=O)c2ccc3c(c2)OCO3)c1Cl | – | inconclusive: 89.1 µM [inhibitor, partial curve, poor fit] |
| Cc1ccc(C(=O)OCC(=O)NCc2ccco2)cc1 | – | inconclusive: 25.1 µM [inhibitor, partial curve, poor fit] |
| OCCC1CN(C/C=C/c2ccco2)CCN1Cc1ccccc1 (stereo not drawn) | – | inconclusive: 56.2 µM [inhibitor, partial curve, poor fit] |
| O=C(CSc1nnnn1-c1cccc(F)c1)Nc1nc2ccccc2s1 | – | inconclusive: 15.8 µM [inhibitor, full curve, poor fit] |
| COC(=O)c1cc(OC)c(OC)cc1NC(=O)c1ccc(Br)o1 | – | inconclusive: 12.6 µM [inhibitor, partial curve, poor fit] |
| Cc1ccc(C(C[N+](=O)[O-])c2c(C)cc3ccccn23)cc1 (stereo not drawn) | – | inconclusive: 100 µM [inhibitor, partial curve, poor fit] |
| CNc1cccccc1=S | – | inconclusive: 3.16 µM [inhibitor, full curve, poor fit] |
| Cn1nc(C(=O)Nc2sccc2C(N)=O)ccc1=O | – | inconclusive: 25.1 µM [inhibitor, single point] |
| O=C(/C=C/NNC(=O)c1cccc(Br)c1)c1ccccc1 | – | inconclusive: 79.4 µM [inhibitor, partial curve, poor fit] |
